# Source: PubChem BioAssay AID588591 (National Center for Advancing Translational Sciences (NCATS), 2011)
# In all, about 390,000 compounds went through this assay and about 4,700 (1.2%) were called active. Inconclusive means that the source gave no clear call. Such entries were picked first, then a sample of the others. Calls come from the whole dose curve; as a rule, active = well fitted inhibition curve with a large enough effect; inconclusive = small, poorly fitted or top-dose-only effect, or another doubt; inactive = no such curve, though single readings can be large or run the other way. A potency beside an inconclusive call is a rough fit, not a confirmed value.
# Biological target: DNA polymerase eta (Homo sapiens) (UniProt Q9Y253)
# Test: qHTS for Inhibitors of Polymerase Eta
# Details: recombinant Pol eta, fluorescent DNA replication assay; series mostly up to 114 µM; activity change, negative = inhibition: at the top concentration
# In short: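 Pol eta (10 nM) was preincubated with compounds for 15 min at room temperature, after which fluorescent replication substrate (50 nM final) was added to start the reaction. Fluorescence was read kinetically at 0 and 10 min.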
# % is set by controls: 0 for no effect and ±100 for the full control effect; potency is the fitted concentration of half-maximal effect; tags give direction and shape of the fitted curve.
# Chain of UniProt Q9Y253 (Q9Y253 whole entry, looked up): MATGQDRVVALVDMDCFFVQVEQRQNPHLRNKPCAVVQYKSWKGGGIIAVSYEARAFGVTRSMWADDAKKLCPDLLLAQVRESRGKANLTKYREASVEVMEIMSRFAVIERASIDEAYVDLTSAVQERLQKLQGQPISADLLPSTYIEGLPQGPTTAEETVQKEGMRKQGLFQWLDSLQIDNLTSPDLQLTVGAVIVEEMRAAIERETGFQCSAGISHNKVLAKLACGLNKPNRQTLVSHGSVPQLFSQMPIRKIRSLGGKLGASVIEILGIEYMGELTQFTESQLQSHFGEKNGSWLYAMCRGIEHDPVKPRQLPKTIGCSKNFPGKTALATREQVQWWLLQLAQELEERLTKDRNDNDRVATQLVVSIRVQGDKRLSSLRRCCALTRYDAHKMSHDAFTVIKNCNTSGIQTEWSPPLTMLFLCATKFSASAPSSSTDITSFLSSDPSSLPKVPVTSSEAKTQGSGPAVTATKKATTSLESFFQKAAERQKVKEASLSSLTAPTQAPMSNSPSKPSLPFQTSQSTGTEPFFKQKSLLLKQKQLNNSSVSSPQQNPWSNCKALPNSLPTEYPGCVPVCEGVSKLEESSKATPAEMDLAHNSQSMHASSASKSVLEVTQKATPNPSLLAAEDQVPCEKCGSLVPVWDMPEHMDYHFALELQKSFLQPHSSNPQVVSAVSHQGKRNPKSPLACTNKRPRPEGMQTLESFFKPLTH
Structure (SMILES),"activity change, negative = inhibition",Potency
N#Cc1cc(-c2cccc(Cl)c2)c[nH]c1=O,inactive: -9.34%,
COC(=O)c1ccc(NC(=O)CCc2nnc3ccc(N4CCC5(CC4)OCCO5)nn23)cc1,,"inconclusive: 89.1 µM [inhibitor, partial curve, poor fit]"
O=C(/C=C(\O)c1ccc(Cl)cc1)C(=O)NNC(=O)C(O)(c1ccccc1)c1ccccc1,,"inconclusive: 20 µM [inhibitor, full curve]"
COc1cc2c(cc1OC)C(C)N(C(=O)c1cc3c(s1)-c1c(C)cccc1OC3)CC2 (configuration not stated),,"inconclusive: 0.794 µM [inhibitor, partial curve, poor fit]"
CC(c1ccon1)N(C)C(=O)CCc1nnc(Cc2ccc(-c3ccccc3)cc2)o1 (configuration not stated),,"inconclusive: 89.1 µM [inhibitor, partial curve, poor fit]"
O=C(N/N=C/c1ccccn1)c1cc(-c2ccc3ccccc3c2)n[nH]1,,"inconclusive: 31.6 µM [inhibitor, single point]"
Cc1cccc(C)c1NC(=O)c1ccc(-n2cnnn2)cc1,,"inconclusive: 3.98 µM [inhibitor, partial curve, poor fit]"
O=[N+]([O-])c1cc(-c2nc(-c3ccccc3)no2)ccc1NCCc1ccccc1,inactive: -17.7%,
O=C(NNC(=O)c1cc2cc3ccccc3nc2s1)c1cccc(C(F)(F)F)c1,,"inconclusive: 17.8 µM [inhibitor, partial curve, poor fit]"
CCc1ccc(CN(Cc2ccco2)C(=O)COc2ccc(Cl)cc2C)cc1,inactive: -11.1%,
CC(C)CCN1CC(O)=C(c2nc(-c3ccc(Cl)cc3)cs2)C1=N,,"inconclusive: 15.8 µM [inhibitor, partial curve, poor fit]"
O=c1cc2oc3cc(O)c(O)cc3c(-c3ccccc3O)c-2cc1O,,"inconclusive: 1.41 µM [inhibitor, full curve, poor fit]"
C/C(=N\Nc1c(Cl)c(Cl)nc(C(=O)O)c1Cl)c1ccc(O)cc1,,"inconclusive: 35.5 µM [inhibitor, partial curve]"
CC(=O)c1ccc(S(=O)(=O)Nc2cccc(-n3cnnn3)c2)cc1,,active: 7.94 µM
O=C(Cn1cc(S(=O)(=O)Cc2ccccc2F)c2ccccc21)NCc1ccccc1Cl,,"inconclusive: 100 µM [inhibitor, partial curve, poor fit]"
Cc1c(C#N)c(O)[nH]c(=O)c1N=Nc1ccc(Br)cc1C(=O)O,,"inconclusive: 35.5 µM [inhibitor, partial curve, poor fit]"
Cc1ccc(-c2nnc(COC(=O)c3cc(=O)[nH]c4ccccc34)o2)cc1,,"inconclusive: 35.5 µM [inhibitor, partial curve, poor fit]"
O=C(O)c1cc(-c2ccco2)nc2ccccc12,,active: 7.08 µM
COc1ccc(-c2cn3c(n2)CCC3)cc1,,"inconclusive: 28.2 µM [inhibitor, partial curve, poor fit]"
CN(CC(=O)Nc1ccccc1Cl)C(=O)COC(=O)c1nc(Cl)c(Cl)c(Cl)c1Cl,,"inconclusive: 11.2 µM [inhibitor, full curve, poor fit]"
Cc1cc(C(=O)NNC(=O)Nc2ccccc2)no1,inactive: -28.9%,

Structure (SMILES),"activity change, negative = inhibition",Potency
N#Cc1ccccc1OCC(=O)N(Cc1nnc(-c2ccccc2Cl)o1)C1CC1,,"inconclusive: 50.1 µM [inhibitor, partial curve, poor fit]"
CCc1ccccc1NC(=O)Cc1ccc(-n2cccc2)cc1,,"inconclusive: 25.1 µM [inhibitor, partial curve]"
COc1ccc2[nH]c3nc(SCc4nnc(-c5ccccc5)o4)nnc3c2c1,inactive: -32.3%,
COc1ccc(NC(=O)CCN2CCN(CCO)CC2)cc1,inactive: -4.68%,
COc1cc(C=O)ccc1OCCCOc1ccccc1C(=O)O,,"inconclusive: 15.8 µM [inhibitor, full curve, poor fit]"
CC(C)c1ccc(NC(=O)C(NS(=O)(=O)c2ccc3c(c2)CCC(=O)N3)c2ccccc2)cc1 (configuration not stated),inactive: -16%,
CCOCN(C(=O)Cn1c(CC(C)C)nc2ccccc21)c1c(C)cccc1CC,,"inconclusive: 50.1 µM [inhibitor, partial curve, poor fit]"
O=C(COc1ccc(F)c(Cl)c1)c1ccc[nH]1,,"inconclusive: 39.8 µM [inhibitor, partial curve, poor fit]"
COc1cc(/C=N/NC(=O)c2ccc(-n3cccc3)cc2)ccc1O,,active: 22.4 µM
Cc1ccc(NC(=O)COC(=O)COc2ccc3ccc(=O)oc3c2)cc1[N+](=O)[O-],,"inconclusive: 4.47 µM [inhibitor, full curve]"
CCOC(=O)c1cc(-c2ccc(OC)cc2)n(CCC(=O)Nc2ccc(OC)cc2OC)c1C,inactive: -16.9%,
COc1ccc2nc(NC(=O)c3ccccc3C(=O)O)sc2c1,inactive: -7.79%,
CC(C)c1ccc(NC(=S)NCCc2c[nH]c3ccccc23)cc1,,"inconclusive: 70.8 µM [inhibitor, partial curve]"
O=C(Nc1ccnn1C1CCN(Cc2ccccc2OCCO)CC1)c1cccc(F)c1,,"inconclusive: 100 µM [inhibitor, partial curve, poor fit]"
O=C1c2cccc3cccc(c23)C(=O)N1OS(=O)(=O)c1ccccc1,inactive: -10.4%,
Cc1ccc(C2CC2/C(=N/O)c2ccc(F)cc2)cc1 (configuration not stated),,"inconclusive: 79.4 µM [inhibitor, partial curve, poor fit]"
COc1cc(NC(=O)CCc2c(C)nc3c4c(C)cc(C)nc4nn3c2C)cc(OC)c1,,"inconclusive: 50.1 µM [inhibitor, partial curve]"
Cc1ccc(C(=O)Nc2ncc3c(n2)CC(c2ccco2)CC3=O)cc1 (configuration not stated),inactive: 2.05%,
C=CCn1c(SCC(=O)c2ccc(O)c(O)c2)nnc1-c1ccc(OC)cc1,,active: 10 µM
Cc1ccc(-n2c(SCC(=O)N3CCN(c4ccccn4)CC3)nnc2N2CCCC2)cc1,,"inconclusive: 89.1 µM [inhibitor, partial curve, poor fit]"
CC1CCN(S(=O)(=O)c2ccc3nc(Nc4cccc(C(F)(F)F)c4)ccc3c2)CC1,,"inconclusive: 70.8 µM [inhibitor, single point]"
